Source: PubChem BioAssay AID686979 (National Center for Advancing Translational Sciences (NCATS), 2013)
Values joined by “and” are separate entries in the source; they are usually repeats but may differ in a detail not shown here. Equal values may be shown once. Among all 420,000 compounds or so, about 50,000 (12%) were called active. This list was built around the results that the source calls inconclusive (neither active nor inactive); the mix of calls is not that of the screen. Calls follow the shape of the dose curve; as a rule, active = well fitted inhibition curve with a large enough effect; inconclusive = small, poorly fitted or top-dose-only effect; inactive = flat fitted curve, though single readings scatter. Potencies beside an inconclusive call are fits to weak or partial responses and may not hold up.

assay: qHTS for Inhibitors of human tyrosyl-DNA phosphodiesterase 1 (TDP1): qHTS in cells in presence of CPT; settings: chicken DT40 Tdp1-/-;hTDP1 cells + 20 nM CPT, ATP luminescence, 48 h; activity change, negative = growth inhibition: at 46.2 µM (top of the series) unless noted; also: nearly all actives have a fitted effect of over 55% in size
Method in brief: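 Chicken DT40 Tdp1-/- cells stably complemented with human TDP1 were seeded at 400 cells/well in medium containing 20 nM camptothecin, exposed to pin-transferred compounds, and grown at 37 °C for at least 48 hr. Viability was read as ATP luminescence.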
% is scaled to controls: 0 for no effect and ±100 for the full control effect; potency is read from the fitted curve at half-maximal effect; tags tell the direction and shape of the fitted curve.

Structure (SMILES)	Potency	activity change, negative = growth inhibition
COc1ccc(Cl)cc1NC(=O)c1sc2nc3c(cc2c1N)N1CCC3CC1	inactive	
O=C1/C(=C/c2ccc(N(CCCl)CCCl)cc2)Cc2ccccc21	active: 4.47 µM	
Cn1c(O)c(C=NCCN2CCOCC2)c(=O)n(C)c1=S	inactive	
CCCCn1c(O)c(C(C)=NCc2cc(OC)cc(OC)c2)c(=O)[nH]c1=O	inconclusive: 29.1 µM [inhibitor, single point]	
Cc1ccccc1Cn1cnc2c(oc3ccccc32)c1=O	inactive and inconclusive: 16.4 µM [inhibitor, partial curve]	
COc1cccc(OP(=O)(Nc2ccccc2)Oc2cccc(OC)c2)c1	inconclusive: 29.1 µM [inhibitor, single point]	
Cc1ccc(-n2nc3c(N4CCC(C(=O)NCCc5ccccc5)CC4)nnc(C)c3c2C)cc1	active: 4.61 µM	
CCC(C(=O)Nc1ccccc1F)N1C(=O)CN=C(c2ccccc2)c2ccccc21 (stereo not drawn)	inconclusive: 20.6 µM [inhibitor, single point]	
CC[C@]1(O)CC[C@H]2[C@@H]3CCC4=CCCC[C@@H]4[C@H]3CC[C@@]21C	active: 7.5 µM	
COc1ccc(C(c2nnnn2-c2ccc(OC)cc2)N2CCC3(CC2)C(=O)NCN3c2ccccc2)cc1 (stereo not drawn)	inconclusive: 29.1 µM [inhibitor, single point]	
Cc1cc(C)c2c(ccc3cccc[n+]32)c1	inconclusive: 23.1 µM [inhibitor, single point]	
Cn1c(=O)oc2cc(S(=O)(=O)N3CCCC(C(=O)N4CCN(c5ccc(Cl)cc5)CC4)C3)ccc21 (stereo not drawn)	active: 5.17 µM	
C[C@H](CO)N1C[C@H](C)[C@@H](CN(C)Cc2ccc(Cl)c(Cl)c2)Oc2c(NC(=O)c3ccncc3)cccc2C1=O	active: 20.6 µM	
c1ccc2c(CN3CCOCC3)c[nH]c2c1	inconclusive: 23.1 µM [inhibitor, single point]	
CCc1ccccc1NC(=O)CNCc1ccccc1	inactive	
O=C1NC(=S)N(c2ccc(F)cc2)C(=O)/C1=C\c1ccoc1	inactive	
C[C@]12CCC3C(CC[C@H]4C[C@H](OC(=O)c5cccnc5)CC[C@]34C)C1CCC2=O (stereo partly drawn)	inconclusive: 23.1 µM [inhibitor, single point]	
CCOC(=O)c1ccccc1NC(=O)c1c(O)[nH]c(=S)[nH]c1=O	inactive	
CCC(C)N1CCN(C(=O)COc2ccc3ccccc3c2)CC1 (stereo not drawn)	inconclusive: 18.4 µM [inhibitor, single point]	
CC(C)CN1CCCC2(CCN(C(=O)c3ccncc3)CC2)C1	inactive	
CC1CC2(C)C(CCC3C2CCC2(C)C(OP(=O)(N4CC4)N4CC4)CCC32)CC1=O (stereo not drawn)	inconclusive: 29.1 µM [inhibitor, single point]	
CCN(c1ccc(C(O)(C(=O)OC)C(F)(F)F)cc1)S(=O)(=O)c1ccccc1 (stereo not drawn)	inconclusive: 29.1 µM [inhibitor, single point]	
Cc1oc2ccc(OC(=O)N3CCOCC3)cc2c1C(=O)OC(C)C	inconclusive: 29.1 µM [inhibitor, partial curve]	
CCCCn1c(=O)c(C(=O)Nc2ccccc2N)c(O)c2ccccc21	inconclusive: 23.1 µM [inhibitor, single point]	
CCOC(=O)[C@]12Cc3ccsc3[C@H]1N(Cc1ccccc1)C(=O)c1ccccc12	inconclusive: 35.5 µM [inhibitor, single point] and inconclusive: 29.1 µM [inhibitor, single point]	

Structure (SMILES)	Potency	activity change, negative = growth inhibition
COC(=O)[C@@H](N)CCCN/C(N)=N/[N+](=O)[O-]	inconclusive: 33.5 µM [inhibitor, single point]	
c1ccc2c(c1)CSc1ccccc1C2C1=NCCN1 (stereo not drawn)	inactive	
BrCC(Br)(Br)Br	active: 9.2 µM	
COC(=O)C1=C(c2ccc(F)cc2OCc2ccccc2)C[C@@H]2CC[C@H]1N2C(=O)N1CCC(C)CC1	inconclusive: 29.1 µM [inhibitor, single point]	
CCc1nc2ccc(C(=O)NCCN3CCNC3=O)cn2c1N(CC)Cc1cccc(Br)c1	inconclusive: 23.1 µM [inhibitor, single point]	
CCC1C2Cn3c(nc4ccccc43)C1N(C)O2 (stereo not drawn)	inactive	
Oc1c(Br)c(Br)c(Br)c(Br)c1Br	inconclusive: 29.1 µM [inhibitor, single point]	
COc1ccccc1N1CCN(C(=O)c2cc3c(-c4ccccc4F)nn(C)c3s2)CC1	inconclusive: 29.1 µM [inhibitor, single point]	
O=C(Nc1ccc(F)cc1)OC1CN2CCC1CC2 (stereo not drawn)	inactive	
Cc1ccc(-c2nc3ccccc3c(=O)n2-c2cccc(O)c2)cc1	active: 2.31 µM	
O=C1OCc2cc(N=Nc3c(O)[nH]c(=O)[nH]c3=O)ccc21	inactive	
S=C=Nc1cccc(C2(N3CCCCC3)CCCCC2)c1	active: 23.7 µM and active: 20.6 µM	
Cc1ccc(S(=O)(=O)N2CCC(C(=O)N3CCC4(CC3)OCCO4)CC2)cc1	inactive	
C[C@]1(O)CCC2C3CC[C@H]4C[C@@H](OC(=O)CNC(=O)CN)CC[C@]4(C)C3CC[C@@]21C (stereo partly drawn)	inconclusive: 32.6 µM [inhibitor, single point]	
O=C1NC2CCCCN2C12CCN(CCCN1c3ccccc3CCc3ccc(Cl)cc31)CC2 (stereo not drawn)	inconclusive: 29.9 µM [inhibitor, single point]	
CNC(=O)CSP(=S)(OC)OC	inconclusive: 20.6 µM [inhibitor, partial curve]	
O=C1C=C(NS(=O)(=O)c2ccccc2)C(=O)c2ccccc21	inconclusive: 18.4 µM [inhibitor, single point]	
Cc1cccc(NC(=O)CSc2nnc([C@@H](N)Cc3c[nH]c4ccccc34)o2)c1C	inactive	
OC(CNCc1ccccc1)c1ccc(Cl)cc1 (stereo not drawn)	inconclusive: 29.1 µM [inhibitor, single point]	
C[C@H](CO)N1C[C@H](C)[C@@H](CN(C)C(=O)Oc2ccc3ccccc3c2)OCc2cnnn2CCCC1=O	inactive	
CC(C)c1ccc(NC(=O)Cn2c(=O)oc3cc(S(=O)(=O)N4CCCC4)ccc32)cc1	active: 9.2 µM	
CNP1(NC)=NC(C(F)(F)F)=NC(C(F)(F)F)=N1	inactive	
CC(O)C1C=CC=CC(=O)OC2CC3OC4C5OC5(C)C(O)CC4(COC(=O)C(O)C(C)CCO1)C2(C)C31CO1 (stereo not drawn)	active: 0.13 µM	
CCCCCCCCOC(=O)c1ccccc1C(=O)OCCCCCCCC	inactive	
CCN(CC(=O)Nc1ccc(NC(C)=O)cc1)C(=O)CSC(c1ccccc1)c1ccccc1	inconclusive: 16.4 µM [inhibitor, single point]	

Structure (SMILES)	Potency	activity change, negative = growth inhibition
CN1CCc2nc3sc(C#N)c(N)c3c(-c3cccs3)c2C1	inconclusive: 29.1 µM [inhibitor, single point]	
CCC(=NCc1cccnc1)c1c(O)n(-c2ccc(Cl)cc2)c(=O)[nH]c1=O	inactive	
COc1ccc2cc1Oc1ccc(cc1)C[C@H]1c3cc(c(OC)cc3CCN1C)Oc1c(O)c(OC)cc3c1[C@H](C2)N(C)CC3	active: 8.2 µM	
C[C@@H](NC(=O)C[C@@H]1C[C@@H]2c3cc(NS(=O)(=O)c4ccc(F)cc4)ccc3O[C@@H]2[C@@H](CO)O1)c1ccccc1	inconclusive: 14.6 µM [inhibitor, single point]	
O=[N+]([O-])c1ccc(NC2CCCC2)c2ccncc12	inconclusive: 23.1 µM [inhibitor, single point]	
COc1ccccc1NC(=O)Cn1c(=O)n(-c2cccc(Cl)c2)c(=O)c2sc3ccccc3c21	active: 13 µM	
Nc1ccccc1N=Cc1c(O)n(CCC2=CCCCC2)c(=O)[nH]c1=O		inconclusive: -34% [inhibitor]
CC(C)C/C(=N/O)c1cn(C)c2ccccc12	inactive	
CCOC(=O)C1(c2ccccc2)CCN(CC(=O)Nc2cccc3ccccc23)CC1	inconclusive: 29.1 µM [inhibitor, single point]	
CCCCCCC(=O)N/N=C/c1c(O)n(C2CC2)c(=S)[nH]c1=O	inconclusive: 18.4 µM [inhibitor, partial curve, poor fit]	
Cc1ccc2c(c1)CCCN2N=O		inconclusive: -31.5% [inhibitor]
COc1ccc(CCC(=O)N2C[C@H]3C[C@@H](C2)c2cccc(=O)n2C3)cc1	inactive	
O=C(c1ccccc1)c1ccc2nc(N3CCN(c4ccc(F)cc4)CC3)c3nncn3c2c1	active: 7.31 µM	
N#Cc1ccccc1NC(=O)c1cccn(Cc2ccccc2)c1=O	active: 18.4 µM	
COCCCOc1ccnc(CS(=O)c2nc3ccccc3[nH]2)c1C (stereo not drawn)	active: 23.7 µM	
C=CCn1c(O)c(C(C)=NC(C)c2ccccc2)c(=O)[nH]c1=O (stereo not drawn)	inconclusive: 29.1 µM [inhibitor, single point]	
CC1(C)[C@H](C=C(Cl)Cl)[C@H]1C(=O)OCc1c(F)c(F)cc(F)c1F	inactive	
CCOC(CN1CCN(CC(C)C(=O)c2ccccc2)CC1)c1ccccc1 (stereo not drawn)	inconclusive: 33.5 µM [inhibitor, single point]	
CCOP(=O)(OCC)/C(=N/OC(=O)c1ccccc1C)C(N)=O	inconclusive: 25.9 µM [inhibitor, single point]	
Cc1ccccc1C(=O)N1Cc2ccccc2-n2nncc2C1	inconclusive: 23.1 µM [inhibitor, single point]	
N[C@H](Cc1o[nH]c(=O)c1Cl)C(=O)O	inactive	
CN1CCc2cccc(Cl)c2CC1	inactive	
C#CC[N+]1(C)C2CCC1CC(O)C2 (stereo not drawn)	inconclusive: 4.61 µM [inhibitor, single point]	
